The supplement of paper PMC11417369
The other results are listed elsewhere or left out.

What follows are sequences tested on PF3D7_0420300 AP2 domain 1 (GST-tagged) (assay: gcPBM binding intensity (ln(normalized median fluorescence intensity)); higher = stronger DNA binding).
Procedure, shortened: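 Binding intensity values are the highest Masliner-normalised natural-log median intensity among replicate spots of either probe orientation. The binding step lasted 1 h in 1× PBS with 1% milk, 0.2 mg/ml BSA, 0.5% salmon testes DNA and 0.03% Triton X-100, using GST-tagged P. falciparum DNA-binding domains expressed in E. coli on an Agilent 4 × 180k array of primer-extended double-stranded 36-bp intergenic genomic probes plus negative controls. Alexa488 anti-GST antibody and a 488 nm scan detected bound protein.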
With TTAATTATGGACAGGGTGCACATGAATAATAATACC the “gcPBM binding intensity (ln)” value was 9.66. In the case of “TATATTATAATAAGACGTACAAGGATGTTAAAACTT [XGTACX_site5828]”, the “gcPBM binding intensity (ln)” value is reported as 9.35. With “AAGGAGAAATAAATATTAAAAAATTTATATATATAT [CACACA_negctrl_site1801]” the “gcPBM binding intensity (ln)” value was 9.05. For “TAATATTGCAAATATAAAAAAAAATAAACCATATAT [XGTACX_negctrl_site458]”, the “gcPBM binding intensity (ln)” value was 9.39. For “TTCTTTTTTAACAACAAAAAAAAAAAAAAAAAAAAA [TGCATGCA_negctrl_site87]”, the “gcPBM binding intensity (ln)” value was 8.37. In the case of “TTTTTTGCTTTCAACACACATACAATCTATATAATC [CACACA_site4125]”, the “gcPBM binding intensity (ln)” value is reported as 9.44. For “TAAACCTGTAGAGATGCATGCATTGTTAACATGGTG [TGCATGCA_site515]”, the “gcPBM binding intensity (ln)” value was 9.24. With “AAAAAATTGACTAATGCACACAATTACATATATATA [CACACA_site1689]” the “gcPBM binding intensity (ln)” value was 9.41. “CAATTTTTCTATCATTGTACTTTTATATAATAGTGT [XGTACX_site1810]” was tested, and the “gcPBM binding intensity (ln)” value was 9.41. For “AATTGTTCTATGATTTGTACACACTTTTTTTTAAAA [XGTACX_site5984]”, the “gcPBM binding intensity (ln)” value was 9.42. In the case of “ATTTTTTACGTATAGTACAAAGTTTTATGATACATA [CACACA_negctrl_site965]”, the “gcPBM binding intensity (ln)” value is reported as 9.14. “ATGAAATATATTATATGTACATATTTATTTTTTATA [XGTACX_site7319]” was tested, and the “gcPBM binding intensity (ln)” value was 9.16. “CATTATAAAAAATAAAAAAGAAATAATTGTATATGC [CACACA_negctrl_site478]” was tested, and the “gcPBM binding intensity (ln)” value was 9.38. “AAATAGTAAATAAGGGGTACAAAAAAAAAAAAAAAA [XGTACX_site8362]” was tested, and the “gcPBM binding intensity (ln)” value was 8.83. In the case of “AAATGCTAAAAATAGAGTACAGATAACGAAAAGTGT [XGTACX_site8830]”, the “gcPBM binding intensity (ln)” value is reported as 9.86. ACAATTTTATTTAAAGTGCATGTAAAATTAAAACTT was tested, and the “gcPBM binding intensity (ln)” value was 9.06. With “AATAAATATCAATACACACACACAAAAGTGAATAAA [CACACA_site3763]” the “gcPBM binding intensity (ln)” value was 10. In the case of “TATACATTTATGTACACACACATATATGTATATTTA [CACACA_site2966]”, the “gcPBM binding intensity (ln)” value is reported as 9.54. “AAAGGAAGAAAAAATAGTACATATATATATATATAA [XGTACX_site766]” was tested, and the “gcPBM binding intensity (ln)” value was 9.25. With “TCCATCCACATATATGTACACACATATATATATATA [CACACA_site8970]” the “gcPBM binding intensity (ln)” value was 9.63. With “GTTAAGGGTATATATACACACATATGTAATACATGA [CACACA_site5650]” the “gcPBM binding intensity (ln)” value was 9.52. For “ACATGTGAAGGGAACATAAATTGGGGTTTTATATTG [XGTACX_negctrl_site508]”, the “gcPBM binding intensity (ln)” value was 9.61. “AAATTATAAATAATTTGTACATAAAAATTGGTAAAG [XGTACX_site5197]” was tested, and the “gcPBM binding intensity (ln)” value was 9.07. For “GAATATAAAAAAGAATGTACTTGAACAGTCCTAAAA [XGTACX_site745]”, the “gcPBM binding intensity (ln)” value was 9.11. With “TTTTGTTAGTTTTTTTTCTTATATTACATTTTCACG [CACACA_negctrl_site1466]” the “gcPBM binding intensity (ln)” value was 9.48.
